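How tested: cells in 96-well plates exposed to compound for 48 hours at five concentrations. Here, GI50 denotes the concentration required for 50% inhibition of growth.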 A number of entries come with more than one value. They are shown here; other results are not. An entry can have further records. For some assays here: The values listed for one entry are repeated measurements across runs, samples, wells, individuals or studies. What stands in brackets tells the records apart. Letters hold for one entry only.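 TGI marks complete inhibition of growth.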 For some assays here: Records of one sample usually come from different ranges of test concentrations, which the source does not state; some values may only mark the edge of a range.
Assays:
Assay in all cases: NCI tumour cell line growth inhibition, 48 h
DU-145 prostate = tested on: DU-145 prostate
HCT-15 colon = tested on: HCT-15 colon
HOP-92 NSCLC = tested on: HOP-92 NSCLC
HT29 colon = tested on: HT29 colon
NCI-H460 lung = tested on: NCI-H460 lung
OVCAR-3 ovarian = tested on: OVCAR-3 ovarian
RPMI-8226 leukemia = tested on: RPMI-8226 leukemia
SF-295 CNS = tested on: SF-295 CNS
SF-539 CNS = tested on: SF-539 CNS
SK-OV-3 ovarian = tested on: SK-OV-3 ovarian
U251 CNS = tested on: U251 CNS
MALME-3M melanoma = tested on: MALME-3M melanoma
NCI/ADR-RES ovarian = tested on: NCI/ADR-RES ovarian

Row | SMILES | GI50 (DU-145 prostate) | TGI (HCT-15 colon) | TGI (HOP-92 NSCLC) | TGI (HT29 colon) | TGI (NCI-H460 lung) | TGI (OVCAR-3 ovarian) | TGI (RPMI-8226 leukemia) | TGI (SF-295 CNS) | TGI (SF-539 CNS) | TGI (SK-OV-3 ovarian) | TGI (U251 CNS) | TGI (MALME-3M melanoma) | TGI (NCI/ADR-RES ovarian)
1 | COC(=O)Nc1nc2ccc(C(=O)c3cccs3)cc2[nH]1 | 24.3 nM [sample A, mean of 4 tests] and 312 nM [sample B, mean of 2 tests] | 2.47 µM [sample A] and > 100 µM [sample B] | 7.95 µM [sample A] and > 100 µM [sample B] | 895 nM [sample A] and > 100 µM [sample B] | 9.39 µM [sample A] and > 100 µM [sample B] | 3.37 µM [sample A, mean of 4 tests] and 296 nM [sample B, 1 test] | 5.85 µM [sample A] and > 100 µM [sample B] | 34.3 nM [sample A] and > 100 µM [sample B] | 489 nM [sample A, mean of 3 tests] and > 100 µM [sample B, 1 test] | 7.55 µM [sample A] and > 100 µM [sample B] | 2.03 µM [sample A] and > 100 µM [sample B] | – | –
2 | Cc1c2ccccc2c(C)n2c1nc1cc(Cl)c(Cl)cc12 | – | – | – | – | – | 307 nM and 98.6 µM | – | – | – | – | – | 315 nM and > 100 µM | 314 nM and > 100 µM

Source: PubChem BioAssay (NCI)
